# In PubChem BioAssay:
# Inconclusive results, whose numbers are uncertain, are shown with a selection of clear calls. Calls of active or inactive are those of the source.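 The calls were made as follows, unless noted: active = viability at or below 27.92% in each of two runs, the all-compound median minus 4 SD; inconclusive = no clear call, values can overlap the other calls; inactive = the rest.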
# Experiment: viability of HCT116 without oncogenic beta-catenin – human colon tumor cells, pilot screen (AID 823;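 active = cell viability at or below a set limit in both duplicate runs, the limit being the all-compound median minus 4 SD, cut at about 23% in these data, passing the limit was not always enough; inconclusive = no clear call, values can overlap the other calls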;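 also: 0% = wells killed by 20 µM Hyamine and 100% = untreated DMSO cell wells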)
# Settings: HCT116 beta-catenin knockout viability, CellTiter-Glo, 60 h; at 10 µM; hits give low values
row,Compound,viability
1,CCOc1ccccc1NC(=O)CSc1ccccc1,inconclusive: 73.2%
2,N#Cc1nc(-c2ccc(F)cc2)oc1NCCN1CCOCC1,inactive: 96%
3,CCCCOC(=O)Nc1nc2ccc(OC)cc2s1,inactive: 96.3%
4,COc1ccccc1S(=O)(=O)Cc1ccc(C(=O)NCc2cccnc2)o1,inactive: 97.8%
5,O=C(CCCOc1ccccc1)N1CCCc2ccccc21,inconclusive: 96.6%
6,COc1ccc(C2c3c(oc4ccccc4c3=O)C(=O)N2c2ccc(C)cn2)cc1OC (stereo unspecified),inactive: 89%

# Experiment: viability of PTEN-null HCT116 cells – cell-based, HCT116 clonal line, CellTiter-Glo, pilot screen (AID 824);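 also: 0% = 20 µM Hyamine control and 100% = vehicle cell control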
# Settings: HCT116 PTEN-deleted viability, 60 h, at 10 µM, hits give low values
row,Compound,viability
1,O=C(CNC(=O)Cn1ccc2ccccc2c1=O)NCCCN1CCCCCC1,inconclusive: 88%
2,CCOc1ccc(NC(=O)C2CC(C)=C(C)CC2C(=O)O)cc1 (stereo unspecified),inconclusive: 98.6%
3,O=C(Cn1nnc(-c2ccccc2NC(=O)c2ccccc2F)n1)NCc1ccco1,inconclusive: 61.5%
4,Cc1ccc2c(c1)c(C)c(C)n2CC(O)Cn1nnc2ccccc21 (stereo unspecified),inconclusive: 86.4%
5,COc1ccc(C2C3=C(CC(C)(C)CC3=O)Nc3n[nH]c(C)c32)cc1 (stereo unspecified),inconclusive: 84.6%
6,O=C(CN1CCN(c2ccccn2)CC1)Nc1cccc(C(F)(F)F)c1,inconclusive: 97%
7,CC1CN(C(=O)c2ccccc2C(=O)c2ncc[nH]2)CC(C)O1 (stereo unspecified),inconclusive: 94.3%
8,CCOc1ccc(N(CC(=O)NC2CCCCCC2)S(=O)(=O)c2c(C)noc2C)cc1,inconclusive: 25.7%
9,CC1(C)Cc2nc(-c3ccccc3)n3cnnc3c2CO1,inconclusive: 96.2%
10,CCC1(C)Cc2c(sc3c2c2ncnn2c2nnc(SCC(=O)NCc4ccco4)n32)CO1 (stereo unspecified),inconclusive: 77.6%
